Hit rate of the full screen: of about 310,000 compounds, about 14,000 (4.5%) showed an effect of 50% or more. The effect is printed as a negative number. Some of the results follow. Where a SMILES comes first, the peptide text is derived from it. The star is where a group is joined. Boc = CC(C)(C)OC(=O)*
biological target: human ether-à-go-go-related gene (hERG) potassium channel (human, UniProt Q12809); assay: primary screen, population patch clamp on CHO cells stably expressing hERG
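Further: peak tail current of the secondary pulse compared with the same well before compound.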

Chain of human ether-à-go-go-related gene (hERG) potassium channel (Q12809 whole entry, looked up): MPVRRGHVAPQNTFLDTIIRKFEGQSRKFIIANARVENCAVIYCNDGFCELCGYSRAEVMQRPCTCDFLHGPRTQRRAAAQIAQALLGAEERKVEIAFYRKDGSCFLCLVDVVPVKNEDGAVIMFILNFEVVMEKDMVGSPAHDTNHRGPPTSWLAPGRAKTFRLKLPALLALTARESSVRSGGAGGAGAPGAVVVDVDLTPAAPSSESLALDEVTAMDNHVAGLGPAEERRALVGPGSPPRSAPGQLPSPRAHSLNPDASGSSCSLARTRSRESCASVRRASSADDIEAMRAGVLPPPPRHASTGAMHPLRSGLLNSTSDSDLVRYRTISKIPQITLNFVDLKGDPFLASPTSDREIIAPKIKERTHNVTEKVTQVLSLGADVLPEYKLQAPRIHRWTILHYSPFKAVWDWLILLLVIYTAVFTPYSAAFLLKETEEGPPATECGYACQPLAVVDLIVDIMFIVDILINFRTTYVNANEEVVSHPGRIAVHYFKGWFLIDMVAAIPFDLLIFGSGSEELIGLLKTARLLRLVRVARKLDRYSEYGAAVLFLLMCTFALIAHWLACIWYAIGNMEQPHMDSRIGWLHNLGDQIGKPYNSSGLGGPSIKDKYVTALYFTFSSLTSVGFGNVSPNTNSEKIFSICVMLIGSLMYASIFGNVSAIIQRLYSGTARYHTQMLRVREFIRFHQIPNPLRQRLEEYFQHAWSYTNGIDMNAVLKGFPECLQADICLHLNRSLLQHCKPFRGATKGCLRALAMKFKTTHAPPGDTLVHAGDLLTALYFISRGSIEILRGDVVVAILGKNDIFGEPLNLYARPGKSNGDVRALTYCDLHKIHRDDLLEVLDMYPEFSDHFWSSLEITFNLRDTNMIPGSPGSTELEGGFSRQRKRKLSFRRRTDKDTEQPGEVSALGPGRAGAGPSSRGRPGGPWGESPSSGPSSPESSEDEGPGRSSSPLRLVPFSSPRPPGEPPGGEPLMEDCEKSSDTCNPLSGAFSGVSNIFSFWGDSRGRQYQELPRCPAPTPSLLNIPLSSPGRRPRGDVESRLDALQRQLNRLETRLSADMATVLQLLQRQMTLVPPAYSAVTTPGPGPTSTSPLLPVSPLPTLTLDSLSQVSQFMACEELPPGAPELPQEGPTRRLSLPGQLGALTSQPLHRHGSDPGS

Compound | hERG current change (%, negative = inhibition) at 10uM [%]
CCCCn1c(N)c(N(CC(C)C)C(=O)c2cc3c(s2)CCCCC3)c(=O)[nH]c1=O | -16.4
Cc1cc(NC(=O)COC(=O)c2cc3c(s2)CCC(C)C3)no1 (centres unmarked) | -2.09
O=C(Nc1cccc(C(F)(F)F)c1)OCc1ccncc1 | -26.8
Cc1c(CN2CCCC(C(=O)c3cccc(Cl)c3)C2)c(=O)n(-c2ccccc2)n1C (centres unmarked) | -24
C[C@H](NC(=O)c1nc[nH]c1C(=O)NCC(=O)OCc1ccccc1)C(=O)OC(C)(C)C | -8.39
COc1ccc(NC(=O)CCc2ccccc2)cc1NC(=O)c1ccco1 | -26.6
Cc1ccsc1/C=N/NC(=O)c1ccncc1 | 13.2
Cc1cc(C)n(-c2nc3nonc3nc2-n2nc(C)cc2C)n1 | 15.2
COc1ccc(C(=O)n2cnc3ccccc32)cc1[N+](=O)[O-] | 3.44
CCN(CC(=O)NC1CCCCCC1)S(=O)(=O)c1ccccc1 | -14.7
COC(=O)C1=NN(C(C)(C)CC(C)=O)C2C(=O)N(C3CCCCC3)C(=O)C12 (centres unmarked) | 9.76
O=C(CCC1CCCC1)NCc1ccccn1 | 8.24
COC(=O)C(C)(N)Cc1ccc(O)cc1.Cl (centres unmarked) | 12.3
O=C(Nc1ccc(Cl)cc1)C1C2C=CC3(O2)C1C(=O)N(CCCN1CCCCC1)C3C(=O)NC1CCCCC1 (centres unmarked) | -5.14
O=C(c1cccc(F)c1)N1CCN(C(=O)C(c2ccccc2)c2ccccc2)CC1 | -40.4
C=CCOC(=O)C1=C[C@@H](c2ccc(C(F)(F)F)cc2)[C@H](CCCO)[C@@H](OCC)O1 | -36.6
O=C1CCC(CCC(=O)N2CCCC(C(=O)c3ccc4c5c(cccc35)CC4)C2)=NN1 (centres unmarked) | -54.4
CCC(C)N(C(=O)C(F)(F)F)C(C(=O)NC1CCCCC1)c1ccncc1 (centres unmarked) | 7.62
O=C(O)c1ccc(NC(=O)c2cn(-c3ccccc3)nc2-c2ccc(Br)cc2)cc1 | 20.4

Compound | hERG current change (%, negative = inhibition) at 10uM [%]
COc1ccc(-n2c(C)nn(CCOc3ccccc3)c2=O)cc1 | -8.57
CCc1nnc(NC(=O)CSc2nnc(-c3ccoc3C)n2CC(C)C)s1 | -1.6
CCOc1nsc(OCC)n1 | 14.1
Cc1ccccc1C(=O)NNC(=O)CCCCC(=O)NNC(=O)c1ccccc1C | 8.16
COC(=O)CSc1cc(C)nc2ccc(OC)cc12 | 1.44
CSCC[C@H](NC(=O)c1cc([N+](=O)[O-])ccc1Cl)c1nc2ccccc2[nH]1 | -45.4
NC12CC3CC(C1)CC(CO)(C3)O2 | 8.54
COc1ccc(NC(=O)C2CCCN(S(=O)(=O)c3c(C)[nH]c(=O)[nH]c3=O)C2)cc1Cl (centres unmarked) | 11.4
O=C(Nc1ccc(Cl)cc1C(=O)N1CCCC1)c1cccc([N+](=O)[O-])c1 | -12
CC(=O)c1cccc(NC(=O)CSc2ccc(-c3ccccn3)nn2)c1 | -13.6
CN(CC(=O)NC1CCN(Cc2ccccc2)CC1)S(=O)(=O)c1ccc(Cl)cc1 | -40.2
COc1ccc(/C=C2\Oc3cc(OCC(=O)N4CCC[C@H]4CO)ccc3C2=O)c(OC)c1 | 2.85
Cc1ccoc1C(=O)NCCCNC(=O)c1occc1C | 20.4
Cc1ccc2nc(N/N=C/c3ccco3)cc(C)c2c1 | -64.3
Cn1ncc([N+](=O)[O-])c1C(=O)Nc1ccc(-c2ccccc2)cc1 | 14.1
CCO[C@@H]1OC(C(=O)NCc2nc3ccccc3[nH]2)=C[C@H](C2CCCCC2)[C@H]1CCCO | -7.48
CCOc1ccc(S(=O)(=O)N2CCN(Cc3ccc4c(c3)OCO4)CC2)cc1OCC | -3.85
CCOC(=O)C1Nc2c(F)cc(C)cc2C2C=CCC12 (centres unmarked) | 15.5
O=C(Cc1csc(NC(=O)Nc2cccc(Cl)c2)n1)NCc1cccnc1 | -53.8

Compound | hERG current change (%, negative = inhibition) at 10uM [%]
COc1ccc(OC)c(/C=N/NC(=O)c2cccc3ccccc23)c1 | 10.9
Cc1csc(NC(=O)CSc2nnc(-c3cccs3)n2C)n1 | -60.5
O=C(NCC1COc2ccccc2O1)c1cc2ccccc2o1 (centres unmarked) | -2.7
COc1ccc(C(=O)OC(C)CN2CCOCC2)cc1.Cl (centres unmarked) | -1.81
CCC(C)C(NC(=O)OC(C)(C)C)C(=O)NC(CC(C)C)C(N)=O (stereo not drawn) (Boc-Ile-Leu-NH2; configuration not given here) | 7.22
O=c1ccc(Oc2nc(N3CCOCC3)nc(N3CCOCC3)n2)n[nH]1 | 2.3
Nc1c(C(=O)CSc2nccn2-c2ccc(Cl)cc2)c(=O)[nH]c(=O)n1C1CC1 | 17.5
Clc1ccc(CN2CCSCC2)cc1Cl | 12.5
Cc1nc(N2CCOCC2)nc2c1CCC2 | 7.62
CCCOC(=O)CC1C(=O)NCCN1Cc1ccccc1C (centres unmarked) | 16.2
O=C(CCCc1nc2ccccc2s1)Nc1ccc(N2CCOCC2)cc1 | 25.7
CCOC(=O)c1ccccc1NC(=O)c1ccc2nccnc2c1 | -18
O=C1NC(Cc2ccccc2)c2nc3cc(F)ccc3c(=O)n2-c2cc(Cl)ccc21 (centres unmarked) | -1.97
CCOc1ccc(-c2nnn(CC(=O)N3CCN(c4ccc(OC)cc4)CC3)n2)cc1OCC | 3.36
CCCNC(=O)CCNC(=O)c1ccc(C(C)(C)C)cc1 | -9.09
CCc1noc(C)c1C(=O)Nc1cc(S(=O)(=O)N2CCOCC2)ccc1OCC(F)(F)F | 12.9
O=C(Cn1cnc2ccccc2c1=O)N1CCOCC1 | 1.45
N/C(=N\OC(=O)CCCOc1ccccc1)c1ccccn1 | 5.84

Source: paper PMC4336329 (PLoS ONE, 2015)
